# From the RNAGym collection of RNA variant scans (doi:10.1093/nar/gkz1192)
# The source gives no read counts; variants with many changes may rest on few reads.
# B1: CPEB3 Ribozyme (parent)
# chain: UAACAGGGGGCCACAGCAGAAGCGUUCACGUCGCAGCCCCUGUCAGAUUCUGGUGAAUCUGCGAAUUCUGCUGUAUAUCUC
# Variants of: B1
# Assay: self-cleavage, relative activity (ratio to wild type); higher = more cleavage; in vitro, sequencing
# In short: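 For each CPEB3 ribozyme variant, relative activity is its cleaved/total read fraction divided by the unmutated ribozyme's. Barcoded error-prone PCR libraries were transcribed by T7 RNA polymerase (5 hours, 37°C) and held in DNase I for 15 min before an EDTA stop, with cleavage occurring throughout. Template-switching reverse transcription and Illumina sequencing were used to read the RNAs. A 5-read minimum applied, and results are the mean of three batches.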
row,Variant,self-cleavage
1,G9U C23A A45G U69C U78C,0.08
2,G9U C34U A35G U60G,0.06
3,G9U C50U U67C,0.02
4,G9U G10A A13U C40U,0.09
5,G9U G19C C40G A77G,0.06
6,G9U G24A C39G U49C,0.04
7,G9U G30U G63C,0.11
8,G9U G33C U43C G52U U54C U60A,0.08
9,G9U G36C A45G U54C U78G,0.03
10,G9U G70A A77U,0.16
11,G9U U25C A56C,0.04
12,G9U U25C C32U U49C U60C U76C,0.05
13,G9U U25C U26C A28U U69C U78C,0.04
14,G9U U25C U48C U51C,0.04
15,G9U U25C U54C U60C U80A,0.06
16,G9U U25C U67C,0.11
17,G9U U26C U31C C38U,0.27
18,G9U U31C A56G,0.1
19,G9U U31C U41C A47C U49C A64C,0.16
20,G9U U41C U49C,0.18
21,G9U U41G A56G A65U U78C,0.24
22,G9U U43C A45G U51C U69A,0.05
23,G9U U43C U49C A64U,0.07
24,G9U U48C U51C,0.05

row,Variant,self-cleavage
1,G9U U49C A57U,0.09
2,G9U U51A C81U,0.21
3,G9U U51A U80C,0.08
4,G9U U51C A65G,0.06
5,G9U U51C G52U U67C,0.13
6,G9U U51G U58C A64U U80A,0.06
7,G9U U60C A77C,0.18
8,G9U U72C A77U,0.37
9,G10A A13C U49C G73U,0.47
10,G10A A13G G36A U48C,0.14
11,G10A A13G U25G U58C A65U U72A,0.05
12,G10A A13G U31A A35G A64G,0.06
13,G10A A13U A18G C29U A35G U41A,0.05
14,G10A A13U A18G C29U U58C,0.1
15,G10A A13U A20G U43A A45U U74C,0.05
16,G10A A13U U41A U49C U78A,0.06
17,G10A A15C U51C,0.29
18,G10A A15G A21G U54A,0.41
19,G10A A15G G24A C39A U60C,0.21
20,G10A A15G U41C G61A U72A,0.06
21,G10A A15U U25C U41C A64G,0.16
22,G10A A15U U26G C39U U54G G73A U80C,0.03
23,G10A A15U U31A A77G,0.05
24,G10A A15U U31G U67C U69C A75G,0.07

row,Variant,self-cleavage
1,G10A A18G A20G U78G,0.3
2,G10A A18G A35G,0.13
3,G10A A18G A35G C59U U67A U74A,0.12
4,G10A A18G C32U U41A G52C U76C,0.17
5,G10A A18G C40U U67C U72A A75U U78C,0.03
6,G10A A18G U26C C29A U41G A47C,0.2
7,G10A A18G U26C C44U C62U U76A,0.15
8,G10A A18G U58C U66A,0.05
9,G10A A18G U67C,0.33
10,G10A A18U U31C U41C U48C U49C U78A,0.28
11,G10A A18U U41A U51C,0.05
12,G10A A18U U43A,0.02
13,G10A A18U U49C,0.11
14,G10A A20G A21G G24A C37A G42A U78C,0.04
15,G10A A20G A45U,0.04
16,G10A A20G A57U,0.12
17,G10A A20G U25A U58C A65G,0.03
18,G10A A20G U31C A45U A57G U66C A75G,0.02
19,G10A A20G U43A G61A,0.05
20,G10A A20G U48A U51G A57G A64U,0.03
21,G10A A20U U31C,0.24
22,G10A A20U U60C U69C U78A,0.04
23,G10A A21G A47G U51C U69A,0.17
24,G10A A21G U48A U69C U72C U78C,0.1

row,Variant,self-cleavage
1,G10A A21G U66A U69C,0.3
2,G10A A21G U78C,0.06
3,G10A A21U G24A U58C U72A,0.09
4,G10A A21U U25C A35G U43A U54C A65G,0.03
5,G10A A21U U51C,0.07
6,G10A A28C C32A U69G,0.05
7,G10A A28G A35G U49A,0.12
8,G10A A28G A45U A56U U60C,0.03
9,G10A A28G G30U G61A,0.08
10,G10A A28G G63A A65G,0.04
11,G10A A28U A75U,0.28
12,G10A A28U U48A C50A U66C,0.05
13,G10A A28U U54C,0.06
14,G10A A35G U43G,0.22
15,G10A A45C A57G C59A,0.06
16,G10A A47G A56G U76A,0.16
17,G10A A47U A57G U76C,0.12
18,G10A A57C U74C,0.18
19,G10A A57G C62A,0.05
20,G10A A64G U67C,0.09
21,G10A A64G U78C,0.14
22,G10A C11A U76C U78C,0.24
23,G10A C11G U26C C40U A65C,0.05
24,G10A C14U C29A,0.39

row,Variant,self-cleavage
1,G10A C14U U48C A65G U72C,0.05
2,G10A C17U U72C,0.21
3,G10A C23U G61A U66A C71A,0.03
4,G10A C29G U54G A56G U78C C79U,0
5,G10A C32A A64G U80C,0.65
6,G10A C32A G63A U69A,0.07
7,G10A C32U U49A U51A U67C,0.06
8,G10A C37U U80C,0.98
9,G10A C39U U41A A56G,0.07
10,G10A C62G U78C,0.12
11,G10A G19U U26A A45C G63A,0.18
12,G10A G24U U25C U26A U41C,0.17
13,G10A G36A A56G U80C,0.06
14,G10A G36A U41A U51G U76A,0.05
15,G10A G46A A57G A64G U80A,0.06
16,G10A U25A G36U A45G A47G,0.05
17,G10A U25A U66C U72C,0.04
18,G10A U25C U26C A56U,0.09
19,G10A U25C U26C U31C A45G,0.06
20,G10A U25C U26C U51C U72C,0.07
21,G10A U25C U31C A35U U72C,0.09
22,G10A U25C U43A A45G U67A U69C U78C,0.05
23,G10A U26A A64U,0.07
24,G10A U26C C40A A45U,0.05

row,Variant,self-cleavage
1,G10A U26C U43C U67C U69A,0.05
2,G10A U31C A45C U60A A64G U72A,0.16
3,G10A U31G G73A,0.07
4,G10A U31G U51C,0.31
5,G10A U41A G63U,0.2
6,G10A U41A U51C,0.12
7,G10A U41C U48C,0.06
8,G10A U43A U72A U74C U80A,0.11
9,G10A U43C U54C U78C,0.24
10,G10A U43G A47U A64U U74C,0.14
11,G10A U51C G61C U72A,0.07
12,G10A U54C U69C U74C,0.07
13,G10A U60C U78C,0.18
14,G10A U60C U78C U80A,0.04
15,G10C A13C A35U U54A,0.22
16,G10C A13G A18U A28U C40U U80C,0.26
17,G10C A13G U41A U66C U74C,0.2
18,G10C A15G U25C,0.05
19,G10C A15G U25C C32A U43C A77G U80C,0.04
20,G10C A15U A18G U54C,0.22
21,G10C A15U A28G G33A U76G,0.09
22,G10C A18G A45G U67C,0.19
23,G10C A18G U25C A35G U43C U48A U78C,0.21
24,G10C A18G U25C U67C U74C,0.12

row,Variant,self-cleavage
1,G10C A18U A21U U31C U49C,0.11
2,G10C A18U U25A A77U,0.14
3,G10C A20G G22U G63U U66C,0.08
4,G10C A21G U66C U76C,0.06
5,G10C A21U A56U U72C,0.1
6,G10C A21U U25C,0.34
7,G10C A35G U58C U69C U72C,0.06
8,G10C A45G U49C,0.27
9,G10C A47U U49A U69A U80C,0.1
10,G10C A57G U72A U76C,0.13
11,G10C C11A G24A U80C,0.29
12,G10C C17A G30A U43C U58C U69A,0.09
13,G10C C17A G46A G70A A75G,0.11
14,G10C C38G G42A A47G U49C U80C,0.04
15,G10C G19U C50A,0.04
16,G10C G24A G36C G52A A57G U58C U72C,0.04
17,G10C U25A C29U A56G C62A,0.06
18,G10C U26A A45G U49C,0.24
19,G10C U26A U54C U60A,0.06
20,G10C U26C A35U U69A,0.07
21,G10C U31A C37U G73A,0.08
22,G10C U41A U48G,0.05
23,G10C U43A A45G U74C U78C,0.16
